Among all 310,000 compounds or so, about 2,200 (0.71%) showed an effect of 50% or more. The effect is printed as a negative number. The list shows a part of the results.

Sequence of human ether-à-go-go-related gene (hERG) potassium channel (Q12809 whole entry, looked up): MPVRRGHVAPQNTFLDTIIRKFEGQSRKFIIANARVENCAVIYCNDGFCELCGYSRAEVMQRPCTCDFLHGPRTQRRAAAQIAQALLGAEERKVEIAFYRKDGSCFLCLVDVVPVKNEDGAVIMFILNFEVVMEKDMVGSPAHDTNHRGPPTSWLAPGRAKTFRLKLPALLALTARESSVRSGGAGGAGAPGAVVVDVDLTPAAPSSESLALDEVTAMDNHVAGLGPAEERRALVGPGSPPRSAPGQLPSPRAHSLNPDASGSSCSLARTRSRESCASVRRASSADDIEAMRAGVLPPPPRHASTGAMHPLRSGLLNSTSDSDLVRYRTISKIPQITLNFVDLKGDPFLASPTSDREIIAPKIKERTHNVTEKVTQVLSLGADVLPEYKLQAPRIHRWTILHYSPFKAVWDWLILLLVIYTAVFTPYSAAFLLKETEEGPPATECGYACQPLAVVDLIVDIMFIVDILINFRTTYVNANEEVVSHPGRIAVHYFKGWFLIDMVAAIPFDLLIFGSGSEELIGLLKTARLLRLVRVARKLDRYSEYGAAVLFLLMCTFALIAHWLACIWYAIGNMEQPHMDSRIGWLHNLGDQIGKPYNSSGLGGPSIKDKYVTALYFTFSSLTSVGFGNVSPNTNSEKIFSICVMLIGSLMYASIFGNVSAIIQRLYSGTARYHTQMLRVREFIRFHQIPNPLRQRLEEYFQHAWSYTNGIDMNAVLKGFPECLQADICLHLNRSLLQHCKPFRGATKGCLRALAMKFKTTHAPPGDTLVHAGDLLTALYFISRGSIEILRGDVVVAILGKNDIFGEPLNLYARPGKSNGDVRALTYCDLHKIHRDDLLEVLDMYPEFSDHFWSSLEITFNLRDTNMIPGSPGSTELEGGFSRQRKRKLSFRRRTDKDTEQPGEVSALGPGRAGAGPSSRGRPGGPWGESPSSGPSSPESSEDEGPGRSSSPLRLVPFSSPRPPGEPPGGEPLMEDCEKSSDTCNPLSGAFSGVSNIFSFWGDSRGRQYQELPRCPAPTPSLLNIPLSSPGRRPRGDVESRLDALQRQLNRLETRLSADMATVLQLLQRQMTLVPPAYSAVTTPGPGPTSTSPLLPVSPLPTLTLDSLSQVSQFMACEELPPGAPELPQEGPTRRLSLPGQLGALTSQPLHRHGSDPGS

This experiment has as its target human ether-à-go-go-related gene (hERG) potassium channel (human, UniProt Q12809). In words: primary screen, population patch clamp on CHO cells stably expressing hERG.
Consider `Cc1cc(C)nc(N/N=C/c2ccccc2OCc2cccc(Br)c2)n1`, for which the “hERG current change (%, negative = inhibition) at 1uM” value was determined as 4.01%.
`Cc1ccc(-c2cc(N)n(Cc3ccc(Cl)cc3)n2)cc1`: the “hERG current change (%, negative = inhibition) at 1uM” value came out at 1.54%.
For the compound `Cn1cc(C(=O)Nc2cccc(F)c2)cn1`, the “hERG current change (%, negative = inhibition) at 1uM” value stood at 14.7%.
Consider `COc1cc(C(=S)N2CCOCC2)cc(OC)c1OC(=O)Cc1ccccc1`, for which the “hERG current change (%, negative = inhibition) at 1uM” value is 7.76%.
In the case of `Nc1ncc(N=Nc2cc(C(=O)O)ccc2Cl)s1` it was 7.03%; in that of `O=C(O)c1cc2ccccc2oc1=O`, 11.8%.
With `COc1ccc(CC(=O)O/N=C(\N)c2ccccn2)cc1`, the “hERG current change (%, negative = inhibition) at 1uM” value came out at 12%.
In the case of `O=C(NCC1CC1)C1CCCN(S(=O)(=O)c2ccc(-n3cnnn3)cc2)C1` (stereo not shown) it was -14.5%; in that of `CC(=O)Nc1cc(NC(C)=O)c(N=Nc2ccccc2)cc1C`, 12.2%.
As for `CC1Cc2ccccc2N1CC(=O)NC(=O)NC1CCCCC1` (stereo not shown), the “hERG current change (%, negative = inhibition) at 1uM” value came to 3.07%.
Regarding `Cc1ccc(NC(=O)CSC2=C(C#N)C(c3ccc4c(c3)OCO4)CC(=O)N2)cc1C` (stereo not shown), the “hERG current change (%, negative = inhibition) at 1uM” value stood at 9.05%.
As for `CCCCn1c(N)c(N(CC(C)C)C(=O)C2CC(=O)N(c3ccc4c(c3)OCCO4)C2)c(=O)[nH]c1=O` (stereo not shown), the figure is 8.42%.
In the case of `CCCCCN(C(=O)CCC(=O)OCc1ccccc1Cl)c1c(N)n(CCCC)c(=O)[nH]c1=O` it was 5.11%; in that of `O=C(COC(=O)c1c[nH]c2ccccc12)NC1CCCC1`, 10%.
As for `COc1cc(/C=N/NC(=O)CCC(=O)NC2CCCCC2)ccc1C`, the figure is 4.97%; as for `Cc1ccc(NC(=O)CN(C)C(=O)COC(=O)C2=COCCO2)cc1`, 13.3%.
As to `NCCCC[C@H]1CNC(=O)C(=O)N1CCCCC1CCCCC1`, the “hERG current change (%, negative = inhibition) at 1uM” value came out at 15.3%.
On to `CC(C)N1CCN(Cc2cccn2-c2nccs2)CC1CCO` (stereo not shown), for which the “hERG current change (%, negative = inhibition) at 1uM” value was 11.5%.
In the case of `Cc1ccc(NC(=O)CSc2ccc(-c3ccco3)nn2)c(C)c1` it was -8.49%; in that of `O=C(Nc1cccc(Cl)c1)c1c(O)c2c(n(Cc3ccco3)c1=O)CCCC2`, 7.55%.
In the case of `CCc1ccccc1NC(=S)N(Cc1cccs1)C1CCCC1` it was 12%.
As for `Cc1ccc(-n2nc3c(N4CCC(C(=O)N5CCC(C(N)=O)CC5)CC4)nnc(C)c3c2C)cc1`, the figure is 11.9%; as for `O=C(Cc1ccccc1)NCC(=O)N1CCc2ccccc2C1`, 8.82%.
Turning to `O=C(COC(=O)/C=C/c1ccccc1Cl)NCc1ccccc1`, the “hERG current change (%, negative = inhibition) at 1uM” value is -8.14%.
In the case of `O=C(NNC(=O)c1cccnc1SCc1cccc([N+](=O)[O-])c1)c1cccnc1` it was 9.72%.

The values are drawn from paper PMC4336329 (PLoS ONE, 2015).
